The supplement of paper PMC11417369
± gives the standard deviation of the averaged measurements. Some of the results follow.

Each sequence was assayed on PfAP2-I AP2 domain 3 (GST-tagged) (assay: gcPBM binding intensity (ln(normalized median fluorescence intensity)); higher = stronger DNA binding).
Procedure, shortened: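 DNA-binding domains from P. falciparum, fused to GST and produced in E. coli, were put on an Agilent 4 × 180k double-stranded probe array for 1 h in 1× PBS holding 1% milk, 0.2 mg/ml BSA, 0.5% salmon testes DNA and 0.03% Triton X-100. Probes were primer-extended, 36 bp long and drawn from intergenic genomic regions, with negative controls included. After Alexa488 anti-GST antibody detection and a 488 nm scan, binding intensity was set as the highest Masliner-normalised natural-log median intensity across replicate spots of either probe orientation.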

Row | Sequence | gcPBM binding intensity (ln)
1 | AAATATATATATATATATATAAATATATACATATAT [TGCATGCA_negctrl_site517] | 7.54 ± 0.59
2 | TTATGGTGCAACATTATGCACACCGTTAAATAACTA [CACACA_site3846] | 11.1 ± 0.52
3 | ATTTATTTTGTTGTTGTTTTTATTTGATTGTTTTAT [CACACA_negctrl_site1275] | 7.67 ± 0.48
4 | GTTTGAATGGCGCACTGTACACATATATACATATAG [XGTACX_site8619] | 8.95 ± 0.25
5 | ACAAAATTATGTAGATGTACAGACATAGAAAGAGAT [XGTACX_site3096] | 8.42 ± 0.89
6 | ATTTATGAAAAATGTACACACATCAAATGCTTATAT [CACACA_site4068] | 7.71 ± 0.69
7 | CGTTTTCTATATCATTGTACATATTCATGTGTAAAT [XGTACX_site2741] | 7.77 ± 0.51
8 | AACAGACGAAGACACACACACATATATATATATATA [CACACA_site1020] | 9.43 ± 0.4
9 | TAAAAGTTCACCTGTACACACATATAAATATGTACA [CACACA_site6901] | 7.81 ± 0.64
10 | ATTAATAAATTCAATTGTACTTGTTTATACATAAAA [XGTACX_site3733] | 7.64 ± 0.29
11 | AAAATTAACCGTAACACACACACATATAAATATGTA [CACACA_site7791] | 8 ± 0.59
12 | TTGTTTAAGTCACGAACACACATATATCATCAATTT [CACACA_site986] | 7.67 ± 0.58
13 | TTATTTTATTTTTGTGCACACTGATAAATTGAAAAG [CACACA_site2949] | 10.8 ± 0.22
14 | TATATTCATAATATTACACACGTTCATTTATTTTAA [CACACA_site2031] | 7.72 ± 0.58
15 | TATGGTTTTAAAAAATGTACGCAAGTGCGTTAATTT [XGTACX_site3945] | 11.2 ± 0.93
16 | GAGTGAAATATGCAAACACACACGAGAAAAATGTAT [CACACA_site3196] | 8.09 ± 0.85
17 | TTATATGCATAAAAAGGTACACATATATAAATAAAT [XGTACX_site6894] | 8.23 ± 0.4
18 | AACAACCAAACGCACACACACAAAAAAAAAAATATA [CACACA_site6326] | 8.8 ± 0.092
19 | TTTGTGTAGGTGTGTAGTACATATAACTTATAACAT [XGTACX_site7885] | 8.38 ± 0.5
20 | TAATAAAATGTACACGCATGCAATAGAATATAAAGT [TGCATGCA_site905] | 8.59 ± 0.85
21 | ACATTTAAAATTTATGCATGTGGTGTTTTGTATATA [TGCATGCA_site534] | 8.01 ± 0.78
22 | ATATTTATATATTGCACACAAAAAAAAAAAAAAATC [CACACA_site1629] | 10.4 ± 0.35

Row | Sequence | gcPBM binding intensity (ln)
23 | TATATATATATGTAATGTACATAAATTTTATACCTT [XGTACX_site6991] | 9.27 ± 0.53
24 | CAGTAGTATATACTATGTACATATTTATATTATATT [XGTACX_site4964] | 7.6 ± 0.31
25 | TAATAAATAAAAATAGAACACACATATGTTTTTTTT [CACACA_site9185] | 7.47 ± 0.63
26 | AATATAAATAAACACACACACATATATATATATATT [CACACA_site2906] | 7.83 ± 0.45
27 | AAAAAAAAAAAAAAATGTACATATATATAAATAAAA [XGTACX_site5574] | 8.04 ± 0.22
28 | TTAAAATGTTGTAACGTGCACATTTTGTGGAAATCA [GTGCAC_site9559] | 9.1 ± 0.3
29 | TATACAGATGGACACACACACATATATATATATATA [CACACA_site5272] | 9.49 ± 0.47
30 | TTATAATTGTAAGGTAGTACATATAAATCAAATAAT [XGTACX_site7190] | 8.04 ± 0.53
31 | ATGAATCTTTTAAAAAGTACATGTGAAAAAAATAAA [XGTACX_site49] | 7.92 ± 0.39
32 | ATACAAACAATTATTTGTACATAAAATTTTTTTTTT [XGTACX_site90] | 7.65 ± 0.51
33 | TTTTTTTGTTAAAAGGTGCTAATATATATAAGTGCT | 10.1 ± 0.45
34 | GTCCCTATAAGGGGAACACACATAAATGAATATATA [CACACA_site1024] | 7.64 ± 0.41
35 | AAATTTATAAAGAACACACACATATAAATATAAATA [CACACA_site6174] | 7.75 ± 0.76
36 | TTATATATTTATATATGTACACATTTTACCATTTTT [XGTACX_site2142] | 7.79 ± 0.23
37 | TTTCTATATAGATTTGCACACATAAAAATGCTTATA [CACACA_site2390] | 8.86 ± 0.12
38 | CTTTATACATGACATAGTACCCATTTTAGATTTGAA [XGTACX_site5240] | 7.89 ± 0.49
39 | TTTTTTTTTTTTACATGTACATATGAATTATAATAT [XGTACX_site5016] | 8.1 ± 0.67
40 | TATTTTACTTTAAAAATGGAAAAAAAAAAGAATATT [CACACA_negctrl_site1360] | 7.59 ± 0.72
41 | ATTGTCATCATTATATGTACGTAAAAGAATATAGAT [XGTACX_site3117] | 8.39 ± 0.4
42 | GAAAGAAGCATAAATGTACACACATATTTATATATT [CACACA_site8368] | 7.74 ± 0.4
43 | TTAATAAAACTAACACGTACACATATATAATATTAT [XGTACX_site3260] | 8.03 ± 0.45
44 | AAACAAATAGACACTTGTACGTAAGTAAATAATTAA [XGTACX_site6157] | 7.74 ± 0.47

Row | Sequence | gcPBM binding intensity (ln)
45 | TATGTTAAAAAAAAAAAAAAGAAAAAAATAAAAGGA [CACACA_negctrl_site119] | 7.48 ± 0.54
46 | AAATATAATTAATGATGTACACTTATAGATATTGAT [XGTACX_site8435] | 8.09 ± 0.24
47 | TACTGATATAATATAACCGTTTATGTGTATTTTTTA [XGTACX_negctrl_site81] | 7.32 ± 0.55
48 | TATAATAAAATTTTTACACACTTTAAAAAAAAAAAA [CACACA_site524] | 7.92 ± 0.8
49 | TATTCTCGTTCTCATACACACAAAATATACATACAC [CACACA_site7278] | 8.16 ± 0.39
50 | GGGTTAATATTTACTACACACACTTAAAATATGTAT [CACACA_site47] | 7.92 ± 0.57
51 | ATGTATTTTTAAAAATATAAATTATGTAACTTGTGA [XGTACX_negctrl_site620] | 7.71 ± 0.54
52 | CGTGGAAAAAAAAACACACACAAAAAAAAAAAAAAA [CACACA_site3997] | 8.02 ± 0.59
53 | TTCAAATATATGTTTTCACACACAAAAGAAATGAAA [CACACA_site8671] | 7.74 ± 0.34
54 | TTTTCTCTAAAAAGGTGTACAACTAATAATGCACTG [XGTACX_site6074] | 11.4 ± 0.31
55 | ATATATATATAATATTGTACGAAAAAAAATAAAAAA [XGTACX_site974] | 9.025 ± 0.007
56 | AATAAGAAAACAAATGCACACCATTTATATAGATTA [CACACA_site8261] | 9.44 ± 0.18
57 | ATGGGTTAGGCGTGTACACAATTGTATGGTTTAATA [CACACA_site4812] | 8.44 ± 0.49
58 | TATATTAATTATAAGACACACATATAGTAATAGAAA [CACACA_site2056] | 7.82 ± 0.66
59 | ACATATTTTTACTTTTGTACATATTTTTTAATTTTC [XGTACX_site640] | 8.01 ± 0.69
60 | TTTATATATTTTTATCTTGATAATAATGTTTTAGAA [TGCATGCA_negctrl_site300] | 7.32 ± 0.46
61 | GTATATTACATAAAATGTACATAAAAAGCGGAAAAG [XGTACX_site6905] | 8.41 ± 0.5
62 | TAGATATATAGAATTACACACTTTTCTATAATATGA [CACACA_site6475] | 7.29 ± 0.54
63 | TATATATATAAATGAATGCACTTTAGAAAAAAGTAC | 10.2 ± 0.23
64 | ATATATATTATAATAACACACATATATTATATTATA [CACACA_site406] | 7.83 ± 0.49
65 | ATAAAATAAAACAACACACACGAATGTATAAATATA [CACACA_site4643] | 7.66 ± 0.66
66 | AATAAAATACAAAAATGTACAAATATAATATACATA [XGTACX_site279] | 7.58 ± 0.46

Row | Sequence | gcPBM binding intensity (ln)
67 | TAATAATATAAATATGCACACAAATTATTACCCAAA [CACACA_site8805] | 8.97 ± 0.47
68 | TAATATAAAATGATAAATGAATGTGATCATTTTATA [CACACA_negctrl_site1034] | 7.32 ± 0.52
69 | ACATACTCAAATAGCACACACATAAATAAAAATGTA [CACACA_site3864] | 8.42 ± 0.099
70 | CATATATATTTTATATGTACATATATATTTTATATA [XGTACX_site8665] | 7.59 ± 0.15
71 | ATATATATTTAAAACGCATGCCTTGTTATATATATA [TGCATGCA_site624] | 8.3 ± 0.57
72 | ATTACAAAAATATATAAACACACAAATATAATATAT [CACACA_site8962] | 7.83 ± 0.56
73 | AATGGAAAAGGTAGTTGTACAACATGTTAAAATGGT [XGTACX_site1312] | 8.52 ± 0.7
74 | ATATAAATATTAATTACACACAAAAAAAAAAAAAAA [CACACA_site6671] | 8.04 ± 0.67
75 | CTCAAAAAATTTCATAGTACTTTAAAATACTATAAT [XGTACX_site1939] | 7.49 ± 0.23
76 | AATAAAAAAAAACGCACACACAAATATATTCCATTC [CACACA_site1224] | 8.3 ± 0.31
77 | ATATAAATAAACAACTTTGTTGGCCTTCCAAAATAT [CACACA_negctrl_site1181] | 7.56 ± 0.45
78 | TTGAAGAATAAATATGCACACATGCATATATTTTTA [CACACA_site5840] | 10.54 ± 0.099
79 | TTTTGTTCTAATATGGGAACATAAATATTAAATATA [CACACA_negctrl_site1787] | 7.45 ± 0.37
80 | ACATTTATATATAATTGTACCCTACATTCTCTTTTT [XGTACX_site189] | 7.74 ± 0.65
81 | GAAAAAAAAAAAAAAAGAAAATTCATATTTTTAATA [XGTACX_negctrl_site513] | 7.11 ± 0.47
82 | AAAAATATATAAACACGTACACACACATATATGTAT [XGTACX_site7436] | 8.16 ± 0.29
83 | TACCAAAAAAAAAAAAAAAATTAAATAAATATGAAA [TGCATGCA_negctrl_site383] | 7.33 ± 0.22
84 | GGGTTGATATATATTTGTACATATTATTATTTATTA [XGTACX_site7116] | 8.04 ± 0.49
85 | ATATATATATATTATGTGCGCATATACCATTTTAAT [GTGCAC_site9575] | 9.35 ± 0.16
86 | TTTATTTTAACTTGTTCACACATTTGAATAAATAAA [CACACA_site5064] | 7.71 ± 0.33
87 | TTTAAAAAAATGAAATAAAAAAAAAATAAAATAAAA [XGTACX_negctrl_site316] | 7.46 ± 0.71
88 | AAATAATTTATATATTGTACAAATATTAAATGCGAA [XGTACX_site3390] | 7.97 ± 0.35
